In PubChem BioAssay AID1030 (National Center for Advancing Translational Sciences (NCATS), 2008):
Screen size: about 220,000 compounds; about 16,000 (7.3%) were called active. Inconclusive results, whose numbers are uncertain, are shown with a selection of clear calls. Calls follow the shape of the dose curve; as a rule, active = well fitted inhibition curve with a large enough effect (not every such curve was filed as active); inconclusive = small, poorly fitted or top-dose-only effect, or another doubt; inactive = no such curve, though single readings can be large or run the other way. Potencies of inconclusive entries are left out as doubtful fits.

What follows are molecules tested against Aldehyde dehydrogenase 1A1 (Homo sapiens) (UniProt P00352) (assay: qHTS Assay for Inhibitors of Aldehyde Dehydrogenase 1 (ALDH1A1)). Details: Purified ALDH1A1, NADH fluorescence, propionaldehyde substrate; series mostly up to 75.3 µM.
Sequence of UniProt P00352 (P00352 whole entry, looked up): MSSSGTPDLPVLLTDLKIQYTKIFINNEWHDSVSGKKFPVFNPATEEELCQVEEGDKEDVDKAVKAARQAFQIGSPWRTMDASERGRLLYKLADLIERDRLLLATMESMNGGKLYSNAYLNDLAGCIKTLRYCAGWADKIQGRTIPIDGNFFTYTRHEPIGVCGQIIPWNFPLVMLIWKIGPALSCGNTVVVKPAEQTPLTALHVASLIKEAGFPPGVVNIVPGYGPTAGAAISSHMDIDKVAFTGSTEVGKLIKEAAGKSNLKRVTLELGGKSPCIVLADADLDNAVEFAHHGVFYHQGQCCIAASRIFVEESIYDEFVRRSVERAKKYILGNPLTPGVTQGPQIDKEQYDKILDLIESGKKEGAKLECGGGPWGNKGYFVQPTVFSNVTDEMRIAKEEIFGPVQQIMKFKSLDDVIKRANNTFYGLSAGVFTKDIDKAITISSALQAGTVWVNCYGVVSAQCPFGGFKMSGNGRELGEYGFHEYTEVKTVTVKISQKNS
Potency is read from the fitted curve at half-maximal effect; tags tell the direction and shape of the fitted curve.

SMILES	Potency
COc1ccc(CCNC(=O)CCCN2C(=O)c3ccccc3C2=O)cc1OC	inconclusive [inhibitor, partial curve]
Cc1cc(C)c2[nH]c(=O)c(CN(CC3CCCO3)C(=O)C3CCCO3)cc2c1 (stereo not given)	inconclusive [inhibitor, single point]
CCOC(=O)c1sc2nc(NC(=O)C(C)(C)C)sc2c1C	inconclusive [inhibitor, single point]
Cc1cc2cc(CNC(=O)c3cccc([N+](=O)[O-])c3)ccc2n1C	inconclusive [inhibitor, single point]
O=C(NC1CCN(Cc2ccccc2)CC1)C1CCN(S(=O)(=O)c2cccc3nsnc23)CC1	inconclusive [inhibitor, single point]
O=C(Nc1ccc2c(c1)OCO2)[C@@H]1[C@@H]2C(=O)N(C3CCCCC3)C(=O)[C@@H]2C2c3ccccc3C=CN21 (stereo not given in full)	active: 11.2 µM
CCN1CCCC1CNC(=O)c1ccc(Sc2ccc(F)cc2)c([N+](=O)[O-])c1 (stereo not given)	inactive
COc1ccc(NCc2cc3cc(OC)ccc3[nH]c2=O)cc1	active: 8.91 µM
CC(=O)c1cccc(NC(=O)c2nc(-c3ccccc3)oc2C)c1	inconclusive [inhibitor, single point]
Cc1ccc(N2C=Nc3ccc(C)c4nc(C)cc2c34)cc1	inconclusive [inhibitor, single point]
O=C(C1CCCN(S(=O)(=O)c2ccccc2[N+](=O)[O-])C1)N1CCN(c2ccccc2)CC1 (stereo not given)	inconclusive [inhibitor, single point]
CCOC(=O)C/C(C)=N/NC(=O)CN(c1ccc(Br)cc1)S(=O)(=O)c1ccccc1	inconclusive [inhibitor, partial curve]
O=C(CNc1ccccc1Cl)N/N=C1\CCCc2ccccc21	inactive
COc1ccc2[nH]c3c(=O)n4c(nc3c2c1)SCCC4	inconclusive [inhibitor, partial curve]
Cc1cccc(Cn2ccc(NC(=O)c3ccc4c(c3)OCO4)n2)c1	inactive
O=C1CN(c2nc3nonc3nc2N2CCCCC2)CCN1	inactive
Cc1ccccc1-c1n[nH]c(=S)o1	inconclusive [inhibitor, partial curve]
COc1ccc(OC)c(NC(=O)c2ccc3nc(-c4ccccc4)c(-c4ccccc4)nc3c2)c1	active: 10 µM
COCC(=O)N1CCCN(c2nc3c(C)cccc3cc2C#N)CC1	inconclusive [inhibitor, single point]
NNC(=O)c1cccc(COc2cccc(Br)c2)c1	active: 3.16 µM
Cc1nnsc1C(=O)NNS(=O)(=O)c1ccccc1	inconclusive [inhibitor, single point]
Cc1ccc(-c2cc3cccc[n+]3cc2-c2ccc(C)cc2)cc1	inconclusive [inhibitor, partial curve]
Cc1cccn2c(=O)c3cc(C(=O)NCCCn4ccnc4)n(C)c3nc12	inconclusive [inhibitor, partial curve]

SMILES	Potency
O=C(Nc1cccc(Br)c1)c1ccc(OC2CSC2)cc1	inconclusive [inhibitor, single point]
CCOC(=O)N1CCC(N2C(=O)c3ccccc3C2Nc2ccc(Cl)cn2)CC1 (stereo not given)	inconclusive [inhibitor, single point]
CCCc1ccc(OCc2nc(-c3ccc(NC(=O)c4ccco4)cc3)no2)cc1	inactive
Cc1sc2nc(-c3cccnc3)[nH]c(=O)c2c1-c1ccccc1	inconclusive [inhibitor, partial curve]
CCN(C(=O)c1sc(N)c(C#N)c1C)C1CCCCC1	inconclusive [inhibitor, single point]
CS(=O)(=O)Oc1ccc(Br)cc1/C=C1/N=C(c2ccco2)OC1=O	inactive
COc1cnn(-c2ccc(C)cc2)c(=O)c1SCc1ccccc1	inconclusive [inhibitor, single point]
CCOC(=O)N1CCN(C(=O)c2cc3c(ccc4ccccc43)oc2=O)CC1	inconclusive [inhibitor, partial curve]
Cc1ccc(C(=O)N/N=C2\CCSC2)cc1[N+](=O)[O-]	active: 12.6 µM
C/C(=N\NC(=O)c1cccs1)c1ccc2c(c1)OCO2	inactive
O=S(=O)(c1ccc2nc(-c3ccccc3)[nH]c2c1)N1CCN(c2ccc(Cl)cc2)CC1	inactive
COC(=O)C1=C(C)NC(C)=C(C(=O)OCCSc2ccccc2)[C@@H]1C	inconclusive [inhibitor, single point]
CCOCCCNCc1ccc(OCc2ccc(F)cc2)c(OC)c1	inactive
CC(C)(C)c1ccc(OCCCNC2CCCC2)cc1	inconclusive [inhibitor, single point]
Cc1cc(Cl)ccc1OCCCC(=O)N1CCN(C(=O)c2ccco2)CC1	inconclusive [inhibitor, single point]
CC(C)N1CCC(NC(=O)NC2CCCCC2)CC1	inactive
Cc1c(C(=O)NNS(=O)(=O)c2ccccc2)sc(=S)n1C	inconclusive [inhibitor, single point]
C=CCc1ccc(OCC(O)CN2CCCCC2C)c(OC)c1 (stereo not given)	inconclusive [inhibitor, single point]
Cc1cc(C)c(S(=O)(=O)Nc2ccc(C(=O)O)c(O)c2)cc1C	inconclusive [inhibitor, partial curve, poor fit]
CC(=O)N1CCC2(CC1)C(C#N)=C(N)Oc1n[nH]c(CSc3ccc(C)cc3)c12	active: 10 µM
COc1ccc(C(C(=O)NC2CCCCC2)N2CCC3(CC2)OCCO3)cc1 (stereo not given)	inconclusive [inhibitor, partial curve]
c1ccc2c(c1)C(=Nn1cnnc1)c1ccccc1-2	inconclusive [inhibitor, partial curve]
